Assay results reported in PubChem BioAssay AID1645887 (National Center for Advancing Translational Sciences (NCATS), 2021).
“And” between values parts separate entries of the source, which are not always exact repeats. Identical values can stand only once. Screen size: about 16,000 compounds; about 40 (0.2%) were called active. Inconclusive results (about 1%) are left out. Calls come from the whole dose curve; as a rule, active = well fitted activation curve with a large enough effect; inconclusive = small, poorly fitted or top-dose-only effect, or another doubt; inactive = no such curve, though single readings can be large or run the other way. The list shows a part of the results.

target: Rap guanine nucleotide exchange factor 4 (Homo sapiens) (UniProt Q8WZA2); experiment: Validation qHTS for agonist of cAMP-regulated guanine nucleotide exchange factor 4 (EPAC2); details: EPAC2 Rap1B BODIPY-GDP exchange, fluorescence; activation: stronger effect = higher value;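 note: exchange makes BODIPY-GDP fluorescence drop when released from Rap1B; series mostly up to about 150 µM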
Sequence of UniProt Q8WZA2 (Q8WZA2 whole entry, looked up): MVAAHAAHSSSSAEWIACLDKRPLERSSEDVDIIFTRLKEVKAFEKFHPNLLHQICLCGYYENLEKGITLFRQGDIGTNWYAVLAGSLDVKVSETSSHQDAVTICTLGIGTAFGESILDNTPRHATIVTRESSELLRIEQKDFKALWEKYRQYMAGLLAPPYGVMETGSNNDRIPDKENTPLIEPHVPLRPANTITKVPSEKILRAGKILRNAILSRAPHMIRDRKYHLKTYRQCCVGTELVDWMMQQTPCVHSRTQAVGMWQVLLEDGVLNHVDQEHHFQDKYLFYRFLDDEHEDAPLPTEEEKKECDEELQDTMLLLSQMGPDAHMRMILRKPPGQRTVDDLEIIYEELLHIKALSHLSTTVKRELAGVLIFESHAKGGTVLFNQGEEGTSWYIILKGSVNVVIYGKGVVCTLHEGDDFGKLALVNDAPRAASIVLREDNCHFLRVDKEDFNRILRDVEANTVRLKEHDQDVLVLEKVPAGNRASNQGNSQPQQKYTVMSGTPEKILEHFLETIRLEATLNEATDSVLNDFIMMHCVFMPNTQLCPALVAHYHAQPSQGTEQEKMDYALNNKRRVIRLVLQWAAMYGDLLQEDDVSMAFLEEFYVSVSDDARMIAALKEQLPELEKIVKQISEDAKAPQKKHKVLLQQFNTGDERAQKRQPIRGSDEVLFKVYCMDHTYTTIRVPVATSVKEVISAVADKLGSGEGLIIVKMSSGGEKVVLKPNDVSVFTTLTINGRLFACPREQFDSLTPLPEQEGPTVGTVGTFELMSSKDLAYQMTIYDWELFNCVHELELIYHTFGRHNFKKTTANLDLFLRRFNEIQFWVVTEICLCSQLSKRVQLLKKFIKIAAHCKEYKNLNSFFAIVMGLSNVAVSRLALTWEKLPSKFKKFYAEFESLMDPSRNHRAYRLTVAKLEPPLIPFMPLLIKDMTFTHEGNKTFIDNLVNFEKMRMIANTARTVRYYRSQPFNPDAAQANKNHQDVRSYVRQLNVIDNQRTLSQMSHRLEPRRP
Method in brief: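 Signal normalized against 6.5 mM cAMP as agonist control. Mix of EPAC2 (100 nM), RAP1B-BODIPY-GDP (250 nM) and GDP (50 uM) was read kinetically at 480/540 nm, every 5 min over 30 min, after 5 min room-temperature incubation with compound.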
% is set by controls: 0 for no effect and ±100 for the full control effect.

activation, inactive:
COc1cccc2c(=O)c3ccccc3oc12 -1.88%
COc1cc(OC)c2c(=O)c(O)c(-c3ccc(OC)c(OC)c3)oc2c1 -19.5%
CNCc1ccccc1 -4.4%
Nc1nc(NC2CC2)c2ncn([C@@H]3C=C[C@@H](CO)C3)c2n1 -13.6%
COc1ccc(NC(=O)N2CCC3(CC2)CCN(C(=O)c2cccc(F)c2)CC3)cc1 -5.8%
C=C1C[C@@]23CC[C@H]4[C@@](C)(CCC[C@@]4(C)C(=O)O)[C@@H]2CC[C@]1(O)C3 -18.8%
O=C(NNCNNC(=O)c1ccncc1)c1ccncc1 -9.69%
O=C(O)CC(O)(CC(=O)O)C(=O)O -6.86% and 0.407%
CO[C@H]1C=CO[C@@]2(C)Oc3c(C)c(O)c4c(O)c(c(/C=N/N5CCN(C6CCCC6)CC5)c(O)c4c3C2=O)NC(=O)/C(C)=C\C=C[C@H](C)[C@H](O)[C@@H](C)[C@@H](O)[C@@H](C)[C@H](OC(C)=O)[C@@H]1C -35.8%
COc1ccc(/C=C/C(=O)NCC2Cc3cc(Cl)cc(-c4ncccn4)c3O2)cc1 (stereo unspecified) 11.2%
COc1ccccc1CN1CCCC2(CCN(C(=O)c3ccncc3)CC2)C1 -15.3%
O=C(Cc1nc2ccccc2[nH]1)N1CCC(n2c(C3CCC3)nc3cccnc32)CC1 -6.4%
C[C@@H]1CN(Cc2ccc3c(c2)CN(Cc2coc4ccccc4c2=O)CCO3)C[C@H](C)O1 -3.32%
CC1=NN(c2ccc([N+](=O)[O-])cc2)C(=O)C1[N+](=O)[O-] (stereo unspecified) -14.7%
COC(=O)c1ccccc1C(=O)N1CCOc2ccc(CN3CCN(c4ccccn4)CC3)cc2C1 -18.8%
N[C@@H](Cc1cc(I)c(Oc2cc(I)c(O)c(I)c2)c(I)c1)C(=O)O -19.7% and 9.4%
CN1CCN(c2ncnc3ccc(-c4cccnc4)cc23)CC1 -15.8%
CC1(C)CCC(C)(C)c2cc(NC(=O)c3ccc(C(=O)O)cc3)ccc21 -26.7%
Cc1cc(=O)oc2cc(O)c(O)cc12 -6.69%
CN(C)Cc1ccccc1-c1cc(N(C)C)ncn1 -5.71%
COc1ccc(C(=O)N2CCC3(CCN(Cc4ccccc4OC)CC3)CC2)cc1 1.68%
COc1cccc(Cn2c(=O)c(-c3ccc(F)c(F)c3)nc3cncnc32)c1 -6.63%
CCCCCCCCCCCCCCCC[n+]1ccc(C)cc1 -51%
CN(C)c1ccc(/C=C/c2c(Cl)cnc3ccccc23)cc1 -18%
C[C@H](CCC(=O)O)[C@H]1CC[C@H]2[C@H]3C(CC[C@]12C)[C@@]1(C)CC[C@@H](O)C[C@H]1C[C@H]3O (stereo partly specified) -0.35% and 6.44%
Nc1ccc(/C=C/c2ccnc3ccccc23)c(N)c1 -30.4%
O=C(C[N+]1(CC(O)c2ccccc2)CCCCC1)c1ccccc1 (stereo unspecified) -11.8%
COc1cc2c(cc1O)C(Cc1ccc(O)cc1)N(C)CC2 (stereo unspecified) -8%
COc1ncc2nc(-c3ccc(F)cc3)c(=O)n(C[C@H]3CCCO3)c2n1 -1.57%
COc1cccc(CC(=O)NCC2Cc3cc(Cl)cc(-c4ncccn4)c3O2)c1 (stereo unspecified) -5.55%
COc1cc(CNc2nc(C)c(-c3ccn(CC4CCCN(C)C4)n3)s2)ccc1F (stereo unspecified) -16.3%
CC(=O)Nc1ccc(S[C@@H](CCN2CC[C@H](O)CCC2=O)c2ccccc2)cc1 -1.76%
O=C(c1n[nH]c2c1CCCC2)N1CCOc2ccc(C(O)C3CCCCC3)cc2C1 (stereo unspecified) -5.66%
Cn1cc(-c2nc3cnc(N4CCOCC4)nc3n(C3CC3)c2=O)c2ccccc21 -7.67%
Cc1cccc(CNc2cc(-c3c(C)noc3C)ncn2)c1 -5.53%
O=c1cc(-c2ccc(O)c(O)c2)oc2cc(OC3OC(CO)C(O)C(O)C3O)cc(O)c12 (stereo unspecified) -12.1%
OCC(O)COc1ccc(Cl)cc1 (stereo unspecified) -15.5%
Cc1ccccc1-c1ccc(CN2CCc3nnc(C(NS(C)(=O)=O)C(C)C)n3CC2)cc1 (stereo unspecified) -3.43%
O=c1cnc2cnc(N3CCOCC3)nc2n1Cc1ccc(F)cc1 -17.5%
CC(C)CN1CC2(CCN(S(=O)(=O)c3ccccc3)CC2)C1 -1.4%
CC(=O)NCC(=O)NCC1Cc2cc(C)cc(-c3ccccn3)c2O1 (stereo unspecified) 0.493%
Cc1nn(-c2ccccc2)c(C)c1/C=N/N1CCN(Cc2ccccc2)CC1 -35.7%
C=C1C(=C/C=C2\CCC[C@]3(C)[C@@H]([C@H](C)/C=C/[C@@H](O)C4CC4)CC[C@@H]23)C[C@@H](O)C[C@@H]1O 1.19%
O=C(c1csnn1)N1CCC2(CCCN(c3ncccn3)C2)CC1 0.753%
Nc1ncnc2c1ncn2[C@@H]1O[C@H](CO)[C@@H](O)[C@H]1O -9.07% and 5.69% and -10.6%
COc1cccc(C(=O)NCC2Cc3c(F)ccc(-c4ncccn4)c3O2)c1OC (stereo unspecified) 1.02%
O=[N+]([O-])c1cccc(/C=C/c2ccccc2)c1 1.58%
c1ccc(CNc2nc(-c3ccc4c(c3)OCO4)nc3ccccc23)cc1 3.01%
COc1cc(=O)n2c(c1C(=O)NC(C)c1ccco1)CCN(Cc1cc(C)cc(C)c1)CC2 (stereo unspecified) -2.14%
COc1ccc(C(=O)N2CCC3(CCCN(c4ccccc4)C3)CC2)cc1 -0.913%
COC(=O)C1CCN(Cc2ccc3c(c2)CN(C(=O)c2ccc(-n4cnnn4)cc2)CCO3)CC1 -3.06%
COC(=O)CC(NC1CCN(c2nc(C)c3cc4c(cc3n2)CCC4)CC1)C(=O)OC (stereo unspecified) -9.13%
CCCCCCCCCCCCCCCCCC(=O)[O][Al] -8.35%
COc1ccc(CN2CCOc3c(cc(-c4ncc(C(F)(F)F)cc4Cl)cc3OCC3CCCO3)C2)c(O)c1 (stereo unspecified) 2.84%
CC(=O)O[C@@H]1CC2CCC1(C)C2(C)C (stereo partly specified) 2.84%
O=C(O)C[C@H]1c2ccccc2S(=O)(=O)N1C1CCCC1 -12.7%
Cc1cccc(-c2cc(=O)c3cc(C)ccc3o2)c1 -4.89%
CN(C)C(=S)SC(=S)N(C)C -10.9%
COC(=O)[C@H](Cc1ccccc1)NS(=O)(=O)N[C@@H](Cc1ccccc1)C(=O)OC -11.6%
COC(=O)[C@@H]1CCCN1C(=O)c1cnn(-c2nccc(-c3cc(C)sc3C)n2)c1C1CC1 -0.534%
C[n+]1cc2c3c(ccc2c2ccc4cc5c(cc4c21)OCO5)OCO3 -9.33% and 1.21% and -29.8%
Cn1c(=O)c(-c2ccc(F)c(F)c2)nc2cncnc21 6.78%
CCc1cc(C(=O)NCc2c(C)ncc3c2CCN(C(=O)C2=CCCC2)C3)no1 -4.52%
CN(C)c1ccc(-c2cc(Nc3ccc(F)cc3)ncn2)cc1 -10.5%
COc1ccc2c(c1)OCC(Cc1ccc(O)c(OC)c1)C2=O (stereo unspecified) -21.4%
CCCCCCCCN1[C@@H](CC(C)=O)c2cc(C(F)(F)F)ccc2S1(=O)=O -28.7%
O=c1c(-c2cc(F)cc(F)c2)nc2cnc(Oc3ccccc3)nc2n1C1CC1 -5.19%
CO[C@H]1C[C@@H]2CC[C@@H](C)[C@@](O)(O2)C(=O)C(=O)N2CCCC[C@H]2C(=O)O[C@H]([C@H](C)C[C@@H]2CC[C@@H](OCCO)[C@H](OC)C2)CC(=O)[C@H](C)/C=C(\C)[C@@H](O)[C@@H](OC)C(=O)[C@H](C)C[C@H](C)/C=C/C=C/C=C/1C -23.7%
CN(C)CCN(Cc1ccccc1)c1ccccn1 -33.3%
O=C(c1cccc(F)c1)N1CCC2(CCCN(Cc3nccs3)C2)CC1 1.02%
COc1cc(=O)n2c(c1C(=O)N(C)Cc1nonc1C)CCN(C(=O)c1ccc(C)cc1C)CC2 -16.9%
CN(C)c1ccc(-c2cncnc2NCc2cccs2)cc1 -17.5%
CN(CC(=O)O)c1ccc(/C=C/c2ccnc3ccccc23)cc1 9.58%
COc1ccccc1N1CCN(CCN(C(=O)C2CCCCC2)c2ccccn2)CC1 -23.2%
COc1cc2c(cc1OC)-c1cc3cc(OC)c(OC)cc3c(=O)n1CC2 -28.1%
CC(=O)[C@H]1CC[C@H]2C3CC=C4C[C@@H](O)CC[C@]4(C)C3CC[C@]12C (stereo partly specified) 1.48%
CC(=O)O[C@@]12CO[C@@H]1C[C@H](O)[C@@]1(C)C(=O)[C@H](O)C3=C(C)[C@@H](OC(=O)[C@H](O)[C@@H](NC(=O)OC(C)(C)C)c4ccccc4)C[C@@](O)([C@@H](OC(=O)c4ccccc4)[C@H]21)C3(C)C -19.7% and -35.2%
COc1ccc(-c2cn(CC3CCCCC3)nn2)cc1 -14.4%
COc1ccc(CNC(=O)C[C@H]2C(=O)N(Cc3ccccc3)C[C@@H]2Cc2ccccc2)cc1 -13.3%
COc1cccc(Nc2ncc3nc(-c4ccc(F)cc4)c(=O)n(C)c3n2)c1 -31.6%
CC(CN(C)C)CN1c2ccccc2Sc2ccc(C(F)(F)F)cc21 (stereo unspecified) -10.7%
